Experimental data: PubChem BioAssay AID1963576 (National Center for Advancing Translational Sciences (NCATS), 2024)
Out of some 46,000 compounds screened, about 60 (0.1%) were called active. Another 3% or so got no clear call; they are omitted. Calls follow the shape of the dose curve; as a rule, active = well fitted inhibition curve with a large enough effect; inconclusive = small, poorly fitted or top-dose-only effect; inactive = no such curve, though single readings can be large or run the other way. Some of the results follow.

Assay: Primary qHTS assay for Inhibitors of ovarian cancer metastasis using an organotypic tumor microenvironment (TME) model. Also: nearly all actives have a fitted effect of over 65% in size.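 As to activity change, negative = inhibition: plate controls were DMSO wells for no effect and tomatine positive control wells for full effect.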
Conditions: SKOV3ip1-GFP adhesion/invasion on 3D omental model, fluorescence; series mostly up to 45.8 µM; activity change, negative = inhibition: at the top concentration
Procedure, shortened: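 Adhesion/invasion was scored as fixed GFP-labeled SKOV3ip1 cell counts (488/509 nm), normalized to DMSO and tomatine controls. Cancer cells in serum-free medium, with four compound doses (0.36-46 umol/L), sat 2 hr at RT then 16 hr at 37 C on a 48 hr fibroblast/mesothelial/ECM culture.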

Activity change, negative = inhibition, inactive:
CCN(C(=O)c1c(C)oc2ncnc(N3CCCCC3)c12)c1cc(C)ccc1C -1.09%
Cc1ccc(C(=O)NCCc2csc(-c3cccc(F)c3)n2)cc1C -4.93%
CCOC(=O)c1ccccc1NC(=O)CSc1ccc(-c2sc(C)nc2C)nn1 -6.58%
COc1ccc(-c2noc(CN(C(=O)c3ccc(C)cc3C)C(C)C)n2)cc1 38.8%
Cc1cc(CS(=O)(=O)c2ccccc2)cc(OCc2ccc(CN3CCC[C@H]3CO)cc2)c1 28.6%
Cc1ccc(C)c(NC(=O)c2cnc(N3CCCC3)nc2C)c1 -1.59%
O=C(OCc1cc(=O)n2nc(C3CC3)sc2n1)c1cccc(NC(=O)c2ccccc2Cl)c1 3.09%
COc1ccc(-c2cn3c(n2)sc2cc(C(=O)NCCc4ccccc4)ccc23)cc1 -4.7%
CCOc1ccccc1C(=O)Nc1cccc(-c2nc3ccccc3s2)c1 -9.99%
CCC(=O)N1CCCc2cc(S(=O)(=O)N3CCC(C(=O)NC4CCC(C)CC4)CC3)ccc21 (stereo not given) -15.6%
Cc1cc(C)cc(NC(=O)NCc2noc3ccccc23)c1 -0.962%
O=C(Cc1ccc(Cl)cc1)NC1CC(=O)N(c2ccc3c(c2)OCCO3)C1 (stereo not given) 28%
CCc1ccccc1N(CC)C(=O)c1cc2c(s1)-c1ccccc1SC2 12.1%
Cc1cccc(CNC(=O)C2CCN(c3nn4cc(-c5ccc(F)cc5)nc4s3)CC2)c1 -13%
COc1ccc(-n2ncc(C(=O)NCc3cccs3)c2C2CCN(C(=O)OC(C)(C)C)CC2)cc1 27.1%
CCC(Sc1nnc(-c2ccc(F)cc2)c(-c2ccc(F)cc2)n1)C(=O)NC1CCCC1 (stereo not given) -6.68%
O=S(=O)(c1ccccc1)n1nc(-c2ccco2)nc1NCc1ccccc1 1.72%
CCc1nnc(NC(=O)c2nc(SCc3cccc(C)c3)ncc2Cl)s1 0.82%
CC1CCN(C(=O)Cn2cc(SCC(=O)NCc3ccccc3)c3ccccc32)CC1 0.681%
CCOc1ccc(C(c2c(O)cc(C)n(Cc3ccco3)c2=O)N2CCN(C)CC2)cc1 (stereo not given) 5.64%
CCC(=O)N1CCc2cc(S(=O)(=O)CCC(=O)Nc3cc(Cl)ccc3OC)ccc21 1.84%
O=C(CSc1nc2c([nH]c3ccccc32)c(=O)n1-c1ccccc1F)Nc1cccc(Cl)c1 -8.75%
Cc1ccc(NC(=O)CSCc2cc(=O)c3ccccc3[nH]2)c(C)c1 8.72%
Cc1ccccc1CNCCCSc1nnnn1C -0.392%
COc1ccc(CNC(=O)C2CCN(S(=O)(=O)c3cccc(-c4noc(C)n4)c3)CC2)cc1 -3.96%
Cc1cccc(Cn2c(CN3CCC(C(=O)NC(C)C)CC3)cc3ccccc32)c1 -1.76%
COc1ccc(-c2cn3c(n2)sc2cc(C(=O)NCCCN4CCN(C)CC4)ccc23)cc1 -26.5%
COc1ccc(Cn2c(CO)cnc2SCc2ccccc2)cc1 0.119%
O=C(COCc1cc(-c2ccc(F)cc2)on1)Nc1cccc(C(F)(F)F)c1 2.04%
CCN(CCCNC(=O)Cn1ncc2c([nH]c3ccccc32)c1=O)c1cccc(C)c1 8.08%
CN(C)C(=O)c1ccc(S(=O)(=O)NCc2ccc(Cl)cc2)s1 -38.5%
CCc1ccccc1Nc1sc(C(=O)c2ccccc2)c(N)c1S(=O)(=O)c1ccccc1 2.05%
Cc1c(C(=O)Nc2c(F)cccc2F)sc2ncn(Cc3ccccc3F)c(=O)c12 -4.13%
CC(=O)N1CCc2c(sc3c2c(=O)n(-c2ccccc2C)c(=O)n3CC(=O)Nc2ccccc2)C1 0.681%
Cn1c(=O)sc2cc(NS(=O)(=O)c3ccc(C(C)(C)C)cc3)ccc21 2.73%
Cc1ccc2c(c1)N(C(=O)N1CCC(C(=O)Nc3cccc(F)c3)CC1)CCO2 3.05%
O=S(=O)(NCCc1csc2nc(-c3ccc(Cl)cc3)nn12)c1cccs1 -12.3%
O=C1CN(C(=O)c2ccc(S(=O)(=O)N3CCCC3)cc2)C(c2ccc(F)cc2)c2cc(Br)ccc2N1 (stereo not given) -11%
COC(=O)c1ccccc1NC(=O)NCc1ccc2c(c1)CCN2C(=O)c1ccccc1 4.97%
CCC1CN(S(=O)(=O)c2cc(-c3cc(C)no3)ccc2OC)c2cc(Cl)ccc2O1 (stereo not given) -14.8%
CN(Cc1ccccc1)c1nc2c(S(=O)(=O)c3cccc(Cl)c3)nnn2c2ccsc12 6.89%
COc1cc2nccc(Oc3ccc(NC(=O)C4(C(=O)Nc5ccc(F)cc5)CC4)cc3)c2cc1OC -5.82%
CCOC(=O)c1ccc2c(c1)N(Cc1cc(C)ccc1C)C(=O)c1ccccc1S2(=O)=O 2.07%
Cc1cc(C)cc(NC(=O)[C@H]2O[C@@H]3OC(C)(C)O[C@@H]3[C@H]3OC(C)(C)O[C@H]32)c1 -13.2%
Cc1ccc2c(c1)N(C(=O)CCC(=O)NCc1ccccc1F)CC(C)O2 (stereo not given) -10.5%
COc1ccccc1Nc1cc(C(=O)NCCCN(C)C2CCCCC2)c2ccccc2n1 -18.2%
COc1cc(Nc2nc3c(S(=O)(=O)c4ccccc4)nnn3c3ccc(Cl)cc23)cc(OC)c1 3.39%
CCc1ccccc1NC(=O)CN(c1cc(C(F)(F)F)ccc1Cl)S(=O)(=O)c1ccccc1 -16.3%
O=c1c2oc3ccccc3c2n(Cc2ccccc2Cl)c(=O)n1Cc1ccc2c(c1)OCO2 4.89%
Clc1cccc(Nc2ncnc3c2nc2n3CCCCC2)c1 5.6%
Cn1c(=O)oc2cc(S(=O)(=O)CCC(=O)NCc3ccc(Cl)cc3)ccc21 -28.4%
Cc1ccsc1CN(Cc1ccco1)c1cnc(S(C)(=O)=O)nc1C(=O)Nc1ccc(Cl)cc1 -1.84%
Cc1ccccc1C(=O)N1CCC(c2nc(-c3ccc(S(=O)(=O)N4CCCC4)cc3)no2)CC1 -4.67%
COc1ccc(Nc2nc3ccccc3n3c(N)nnc23)cc1 4.05%
COc1ccc(-c2cn3nc(SCC(=O)Nc4cccc(C)c4C)ccc3n2)cc1 -5.05%
Cc1ccc(C(c2sc3nc(-c4ccco4)nn3c2O)N2CCN(c3ccc(F)cc3)CC2)cc1 (stereo not given) 6.91%
Cc1oc(-c2cccc(Cl)c2)nc1Cn1c(SCc2ccc(F)cc2)nc2cccnc21 -9.31%
COc1cc2c(C(=O)N(C)c3cccc(C(F)(F)F)c3)cn(CC(C)C)c(=O)c2cc1OC 2.46%
COc1cc2c(cc1OC)C(COc1cc(C)cc(C)c1)N(C(=O)C(C)(C)C)CC2 (stereo not given) -2.27%
CCC(Nc1ccc(-c2nc(-c3ccccn3)no2)cc1[N+](=O)[O-])c1ccccc1 (stereo not given) 8.6%
CCCCN(C)C(=O)CCC(=O)NNc1nc2ccccc2c2nc(C)nn12 3.69%
Cc1cc2n(n1)CCCN2C(=O)Nc1ccccc1C(F)(F)F 9.9%
CCc1ccc(S(=O)(=O)c2nnn3c2nc(N(CC)Cc2ccccc2)c2cc(Cl)ccc23)cc1 0.475%
Cc1ccc(C2CC(=O)Nc3c2c(C)nn3-c2nc(C)cc(C)n2)c(C)c1 (stereo not given) 4.46%
COc1cc(CN(C(=O)COc2ccccc2)c2ccccn2)cc(OC)c1OC 3.82%
CCC(C)OC(=O)/C(C#N)=C/c1ccc(-c2ccc(Br)cc2)o1 (stereo not given) -23.8%
COc1cccc(NC(=O)C2CCCN(c3ncnc4onc(C)c34)C2)c1 (stereo not given) 7.06%
CCC1=C(C)CN(C(=O)NCCc2ccc(S(=O)(=O)NC(=O)NC3CCC(C)CC3)cc2)C1=O (stereo not given) 17.8%
CCc1ccc(NC(=O)c2cc(=O)c3ccc(C)c(C)c3o2)cc1 -18.5%
COc1ccc(NC(=O)CNC(=O)Cn2ccc3ccccc3c2=O)cc1OC 5.85%
CNC(=O)c1cnc2sc(N3CCC(C)CC3)nn2c1=O 2.78%
CCCCCOc1ccc(/C=C/C(=O)Nc2sc3c(c2C(=O)OCC)CCC3)cc1OC 1.11%
CNC(=O)c1cc(COc2nnc(Nc3ccc(Cl)cc3)c3ccoc23)ccn1 -9.55%
O=C(Nc1ccccc1C(=O)N1CCCCC1)c1nsc2ccccc12 5.36%
Cc1cccc(N2CCN(CCCNc3ncnc4onc(-c5ccc(F)cc5)c34)CC2C)c1 (stereo not given) 0.478%
O=C(Nc1ccc(F)c(F)c1)c1cc(S(=O)(=O)NC2CCCC2)ccc1F 9.69%

outcome, inactive:
COc1ccccc1/C=C/c1nc(C#N)c(NCc2ccccc2)o1
CCOc1ccc(-c2cn3c(n2)sc2cc(C(=O)NC(C)C45CC6CC(CC(C6)C4)C5)ccc23)cc1 (stereo not given)
COc1cccc(N2CC(NC(=O)/C=C\c3ccccc3)CC2=O)c1 (stereo not given)
COc1ccc(C2C(C(=O)Nc3ccccc3)=C(C)Nc3nc(-c4ccc(Cl)cc4)nn32)cc1 (stereo not given)
CCOc1ccc(CNC(=O)c2cc3c(=O)oc4ccc(C)cc4c3s2)cc1
Cc1ccc(-n2c(=O)c3c(C)c(C(=O)N(C)C)sc3n(Cc3ccccc3C)c2=O)cc1C
CCCOc1ccc(C2C(=O)N(C3CCCCC3)CC(=O)N2C2CCCCC2)cc1OC (stereo not given)
COC(=O)c1scc(-c2ccc(C)cc2)c1S(=O)(=O)N1CCN(c2cccc(Cl)c2)CC1
CCc1ccccc1NC(=O)Cn1c(=O)n(-c2ccc(C)cc2)c(=O)c2cc(OC)c(OC)cc21
CCCCN(CC)C(=O)CSc1nc2c(sc3ccccc32)c(=O)n1CCc1ccccc1
Cc1ccc(S(=O)(=O)c2nc(-c3cccs3)oc2N2CCC(C)CC2)cc1
CCCCNC(=O)CSc1nc2cc3c(cc2c(=O)n1CCCC(=O)NCc1ccc(OC)cc1)OCO3
CC(C)CC(=O)NC1CC(=O)N(c2ccc3c(c2)OCCO3)C1 (stereo not given)
O=C(COc1ccc(Cl)cc1)OCc1cc(=O)n2nc(C3CCCCC3)sc2n1
Cc1cccc(C(=O)Nc2ccc(OCc3cc(=O)n4ccc(C)cc4n3)cc2)c1
CC1CCN(C(=O)CN2CC(C)Sc3ccccc32)CC1 (stereo not given)
Cc1cccc(N2CCn3c2nc2c3c(=O)n(CCCc3ccccc3)c(=O)n2C)c1
COC(=O)CN1C(=O)CSc2ccc(S(=O)(=O)Nc3ccc(C)c(Cl)c3)cc21
CCc1ccc2oc(-c3cc(NC(=O)c4cccs4)ccc3Cl)nc2c1
